# Reference: the supplement of paper PMC8728848
# The other results are listed elsewhere or left out.
# B1: LTL (Lotus tetragonolobus), P19664 (protein)
# chain: VSFNYTEFKDDGSLILQGDAKIWTDGRLAMPTDPLVNNPKTTRSAGRALYATPVPIWDSATGNVASFVTSFNFLFVIRELKYTPTDGLVFFLAPVGTEIPSGSTGGFLGIFDGSNGFNQFVAVEFDSYHNIWDPKSLRSSHVGIDVNSIMSLKAVNWNRVSGSLEKATIIYDSQTNILSVVMTSQNGQITTIYGTIDLKTVLPEKVSVGFSATTGNPEREKHDIYSWSFTSTLKEPEEQA
# How the values were obtained:
# Experiment in all cases: glycan array binding signal (z-score within array); higher = stronger binding
# Details in all cases: glycan notation: IUPAC condensed, linker removed
# [1] = target: Neu5Ac(a2-3)Gal(b1-4)GlcNAc(b1-2)Man(a1-3)[GlcNAc(b1-4)][Neu5Ac(a2-3)Gal(b1-4)GlcNAc(b1-2)Man(a1-6)]Man(b1-4)GlcNAc(b1-4)GlcNAc
# Outline: (§1)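 From the Consortium for Functional Glycomics database, 3228 arrays were curated, keeping only those whose protein sequence was available. Binding is given as a within-array Z-score averaged across arrays sharing a protein sequence and across linkers. Negative Z-scores can be read as non-binding.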
# [2] = target: Neu5Ac(a2-3)Gal(b1-4)GlcNAc(b1-2)Man(a1-3)[Neu5Ac(a2-3)Gal(b1-4)GlcNAc(b1-2)Man(a1-6)]Man(b1-4)GlcNAc(b1-4)GlcNAc
# Outline: as §1
# [3] = target: Neu5Ac(a2-3)Gal(b1-4)GlcNAc(b1-2)Man(a1-3)[Neu5Ac(a2-3)Gal(b1-4)GlcNAc(b1-2)Man(a1-6)]Man(b1-4)GlcNAc(b1-4)[Fuc(a1-6)]GlcNAc
# Outline: as §1
# [4] = target: Neu5Ac(a2-3)Gal(b1-4)GlcNAc(b1-2)Man(a1-3)[Neu5Ac(a2-6)Gal(b1-4)GlcNAc(b1-2)Man(a1-6)]Man(b1-4)GlcNAc(b1-4)GlcNAc
# Outline: as §1
# [5] = target: Neu5Ac(a2-3)Gal(b1-4)GlcNAc(b1-2)[Neu5Ac(a2-3)Gal(b1-4)GlcNAc(b1-4)]Man(a1-3)[GlcNAc(b1-4)][Neu5Ac(a2-3)Gal(b1-4)GlcNAc(b1-2)[Neu5Ac(a2-3)Gal(b1-4)GlcNAc(b1-6)]Man(a1-6)]Man(b1-4)GlcNAc(b1-4)GlcNAc
# Outline: as §1
# [6] = target: Neu5Ac(a2-3)Gal(b1-4)GlcNAc(b1-2)[Neu5Ac(a2-3)Gal(b1-4)GlcNAc(b1-4)]Man(a1-3)[GlcNAc(b1-4)][Neu5Ac(a2-3)Gal(b1-4)GlcNAc(b1-4)Man(a1-6)]Man(b1-4)GlcNAc(b1-4)GlcNAc
# Outline: as §1
# [7] = target: Neu5Ac(a2-3)Gal(b1-4)GlcNAc(b1-2)[Neu5Ac(a2-3)Gal(b1-4)GlcNAc(b1-6)]Man(a1-6)[Neu5Ac(a2-3)Gal(b1-4)GlcNAc(b1-2)Man(a1-3)]Man(b1-4)GlcNAc(b1-4)GlcNAc
# Outline: as §1
# [8] = target: Neu5Ac(a2-3)Gal(b1-4)GlcNAc(b1-2)[Neu5Ac(a2-3)Gal(b1-4)GlcNAc(b1-6)]Man(a1-6)[Neu5Ac(a2-3)Gal(b1-4)GlcNAc(b1-2)Man(a1-3)][GlcNAc(b1-4)]Man(b1-4)GlcNAc(b1-4)GlcNAc
# Outline: as §1
# [9] = target: Neu5Ac(a2-3)Gal(b1-4)GlcNAc(b1-3)Gal
# Outline: as §1
# [10] = target: Neu5Ac(a2-3)Gal(b1-4)GlcNAc(b1-3)Gal(b1-3)GlcNAc
# Outline: as §1
# [11] = target: Neu5Ac(a2-3)Gal(b1-4)GlcNAc(b1-3)Gal(b1-4)GlcNAc
# Outline: as §1
# [12] = target: Neu5Ac(a2-3)Gal(b1-4)GlcNAc(b1-3)Gal(b1-4)GlcNAc(b1-2)Man(a1-3)[Neu5Ac(a2-3)Gal(b1-4)GlcNAc(b1-3)Gal(b1-4)GlcNAc(b1-2)Man(a1-6)]Man(b1-4)GlcNAc(b1-4)GlcNAc
# Outline: as §1
# [13] = target: Neu5Ac(a2-3)Gal(b1-4)GlcNAc(b1-3)Gal(b1-4)GlcNAc(b1-3)Gal(b1-4)GlcNAc
# Outline: as §1
# [14] = target: Neu5Ac(a2-3)Gal(b1-4)GlcNAc(b1-3)Gal(b1-4)GlcNAc(b1-3)Gal(b1-4)GlcNAc(b1-2)Man(a1-3)[Neu5Ac(a2-3)Gal(b1-4)GlcNAc(b1-3)Gal(b1-4)GlcNAc(b1-3)Gal(b1-4)GlcNAc(b1-2)Man(a1-6)]GalNAc
# Outline: as §1
# [15] = target: Neu5Ac(a2-3)Gal(b1-4)GlcNAc(b1-3)Gal(b1-4)GlcNAc(b1-3)GalNAc
# Outline: as §1
# [16] = target: Neu5Ac(a2-3)Gal(b1-4)GlcNAc(b1-3)Gal(b1-4)GlcNAc(b1-3)[Neu5Ac(a2-3)Gal(b1-4)GlcNAc(b1-3)Gal(b1-4)GlcNAc(b1-6)]GalNAc
# Outline: as §1
# [17] = target: Neu5Ac(a2-3)Gal(b1-4)GlcNAc(b1-3)Gal(b1-4)GlcNAc(b1-6)[Gal(b1-3)]GalNAc
# Outline: as §1
# [18] = target: Neu5Ac(a2-3)Gal(b1-4)GlcNAc(b1-3)Gal(b1-4)[Fuc(a1-3)]GlcNAc
# Outline: as §1
# [19] = target: Neu5Ac(a2-3)Gal(b1-4)GlcNAc(b1-3)GalNAc
# Outline: as §1
# [20] = target: Neu5Ac(a2-3)Gal(b1-4)GlcNAc(b1-3)[Neu5Ac(a2-3)Gal(b1-4)GlcNAc(b1-6)]GalNAc
# Outline: as §1
# [21] = target: Neu5Ac(a2-3)Gal(b1-4)GlcNAc(b1-6)GalNAc
# Outline: as §1
# [22] = target: Neu5Ac(a2-3)Gal(b1-4)GlcNAc(b1-6)[Gal(b1-3)]GalNAc
# Outline: as §1
# [23] = target: Neu5Ac(a2-3)Gal(b1-4)GlcNAc(b1-6)[Neu5Ac(a2-3)Gal(b1-3)]GalNAc
# Outline: as §1
# [24] = target: Neu5Ac(a2-3)Gal(b1-4)GlcNAc6S
# Outline: as §1
# [25] = target: Neu5Ac(a2-3)Gal(b1-4)[Fuc(a1-3)]GlcNAc
# Outline: as §1
# [26] = target: Neu5Ac(a2-3)Gal(b1-4)[Fuc(a1-3)]GlcNAc(b1-2)Man
# Outline: as §1
# [27] = target: Neu5Ac(a2-3)Gal(b1-4)[Fuc(a1-3)]GlcNAc(b1-3)Gal
# Outline: as §1
# [28] = target: Neu5Ac(a2-3)Gal(b1-4)[Fuc(a1-3)]GlcNAc(b1-3)Gal(b1-4)GlcNAc
# Outline: as §1
# [29] = target: Neu5Ac(a2-3)Gal(b1-4)[Fuc(a1-3)]GlcNAc(b1-3)Gal(b1-4)[Fuc(a1-3)]GlcNAc(b1-3)Gal(b1-4)[Fuc(a1-3)]GlcNAc
# Outline: as §1
# [30] = target: Neu5Ac(a2-3)Gal(b1-4)[Fuc(a1-3)]GlcNAc(b1-3)GalNAc
# Outline: as §1
# [31] = target: Neu5Ac(a2-3)Gal(b1-4)[Fuc(a1-3)]GlcNAc(b1-6)[Gal(b1-3)]GalNAc
# Outline: as §1
# [32] = target: Neu5Ac(a2-3)Gal(b1-4)[Fuc(a1-3)]GlcNAc(b1-6)[Neu5Ac(a2-3)Gal(b1-3)]GalNAc
# Outline: as §1
# [33] = target: Neu5Ac(a2-3)Gal(b1-4)[Fuc(a1-3)]GlcNAc6S
# Outline: as §1
# [34] = target: Neu5Ac(a2-3)Gal6S(b1-4)GlcNAc
# Outline: as §1
# [35] = target: Neu5Ac(a2-3)Gal6S(b1-4)[Fuc(a1-3)]GlcNAc
# Outline: as §1
# [36] = target: Neu5Ac(a2-3)GalNAc
# Outline: as §1
# [37] = target: Neu5Ac(a2-3)GalNAc(b1-4)GlcNAc
# Outline: as §1
binder,measurement,setting,value
B1,glycan array binding signal (z-score),[1],-0.322
same,glycan array binding signal (z-score),[2],-0.261
same,glycan array binding signal (z-score),[3],-0.265
same,glycan array binding signal (z-score),[4],-0.254
same,glycan array binding signal (z-score),[5],-0.427
same,glycan array binding signal (z-score),[6],-0.255
same,glycan array binding signal (z-score),[7],-0.31
same,glycan array binding signal (z-score),[8],-0.267
same,glycan array binding signal (z-score),[9],-0.219
same,glycan array binding signal (z-score),[10],0.176
same,glycan array binding signal (z-score),[11],-0.188
same,glycan array binding signal (z-score),[12],2.77
same,glycan array binding signal (z-score),[13],-0.035
same,glycan array binding signal (z-score),[14],5.64
same,glycan array binding signal (z-score),[15],-0.214
same,glycan array binding signal (z-score),[16],0.512
same,glycan array binding signal (z-score),[17],0.74
same,glycan array binding signal (z-score),[18],0.099
same,glycan array binding signal (z-score),[19],-0.196
same,glycan array binding signal (z-score),[20],-0.264
same,glycan array binding signal (z-score),[21],-0.465
same,glycan array binding signal (z-score),[22],0.214
same,glycan array binding signal (z-score),[23],-0.237
same,glycan array binding signal (z-score),[24],-0.145
same,glycan array binding signal (z-score),[25],-0.31
same,glycan array binding signal (z-score),[26],-0.237
same,glycan array binding signal (z-score),[27],-0.157
same,glycan array binding signal (z-score),[28],-0.086
same,glycan array binding signal (z-score),[29],0.103
same,glycan array binding signal (z-score),[30],0.385
same,glycan array binding signal (z-score),[31],1.2
same,glycan array binding signal (z-score),[32],0.815
same,glycan array binding signal (z-score),[33],-0.154
same,glycan array binding signal (z-score),[34],1.81
same,glycan array binding signal (z-score),[35],2.84
same,glycan array binding signal (z-score),[36],-0.335
same,glycan array binding signal (z-score),[37],-0.428
